The whole screen tested about 46,000 compounds, of which about 60 (0.1%) were called active. Roughly 3% stayed inconclusive and do not appear here. Calls follow the shape of the dose curve; as a rule, active = well fitted inhibition curve with a large enough effect; inconclusive = small, poorly fitted or top-dose-only effect; inactive = no such curve, though single readings can be large or run the other way. The list shows a part of the results.

The assay can be described thus: Primary qHTS assay for Inhibitors of ovarian cancer metastasis using an organotypic tumor microenvironment (TME) model. Also: nearly all actives have a fitted effect of over 65% in size.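 As to activity change, negative = inhibition: plate controls were DMSO wells for no effect and tomatine positive control wells for full effect.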 The settings on record: SKOV3ip1-GFP adhesion/invasion on 3D omental model, fluorescence; series mostly up to 45.8 µM; activity change, negative = inhibition: at the top concentration. The gist of the method: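 Adhesion/invasion was scored as fixed GFP-labeled SKOV3ip1 cell counts (488/509 nm), normalized to DMSO and tomatine controls. Cancer cells in serum-free medium, with four compound doses (0.36-46 umol/L), sat 2 hr at RT then 16 hr at 37 C on a 48 hr fibroblast/mesothelial/ECM culture.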
For orientation: In qHTS, concentration-response curves come from the screen itself.
For `Cc1ccccc1-c1nc(CN2CCC(C(=O)NCCc3ccccc3)CC2)c(C)o1`, the “activity change, negative = inhibition” value is inactive: -27.5%.

As for `COc1cc(C2SC[C@H]3C(=O)N(c4ccccc4)C(=O)N23)cc(OC)c1OC` (stereo partly drawn), the compound was classed as inactive.

Take `COc1ccc(CNC(=O)C2CCCN(C(=O)N3CCOc4ccccc43)C2)cc1` (stereo not drawn): the “activity change, negative = inhibition” value is inactive: 6.28%.

For `O=C(Cn1nc(N2CCN(c3ccccc3)CC2)ccc1=O)Nc1ccc(F)cc1F`, the “activity change, negative = inhibition” value is inactive: -9.36%.

Consider `Cc1ccc(S(=O)(=O)c2nnn3c2nc(NC(C)c2ccccc2)c2sccc23)cc1` (stereo not drawn), for which the “activity change, negative = inhibition” value is inactive: 0.987%.

As for `CCCc1cc(=O)[nH]c2nnc(SCC(=O)Nc3ccc(OC)cc3)n12`, the result was inactive.

Take `O=C(COCc1cc(-c2ccc(F)cc2)on1)Nc1cccc(Cl)c1Cl`: the “activity change, negative = inhibition” value is inactive: -2.18%.

As for `O=C(Nc1ccccc1C(=O)OCc1cc(=O)n2ccsc2n1)c1ccc(Cl)cc1`, the “activity change, negative = inhibition” value is inactive: -6.5%.

Turning to `O=C(NCc1cccn1Cc1ccccc1)Nc1ccc(Br)cc1F`, the “activity change, negative = inhibition” value was inactive: -0.887%.

`COc1cccc(N2CCN(c3ncnc4c3c(-c3ccccc3)cn4-c3ccc(C)cc3)CC2)c1`: the compound was classed as inactive.

With `CCOC(=O)c1c(C)[nH]c(C)c1S(=O)(=O)NCC(=O)NCc1ccc(C)cc1`, the “activity change, negative = inhibition” value was inactive: 4.1%.

Consider `CCN(CC)S(=O)(=O)c1ccc2c(c1)nc(CN(C)C(=O)Nc1ccc(Cl)cc1)n2C`, for which the call was inactive.

Take `COc1ccccc1CNC(=O)CCNS(=O)(=O)c1ccc2c(c1)CCCC(=O)N2`: the result was inactive.

For the compound `Cc1ccc(Cl)cc1NC(=O)Nc1nnc(N2CCCC(C)C2)s1` (stereo not drawn), the “activity change, negative = inhibition” value was inactive: 5.58%.

Consider `CCOc1ccc(N2CC(NC(=O)c3ccc(S(=O)(=O)N4CCCC4)cc3)CC2=O)cc1` (stereo not drawn), for which the “activity change, negative = inhibition” value is inactive: 7.71%.

In the case of `CCOC(=O)c1c(C)c(-c2ccccc2)n(CC(=O)NCc2cccc(OC)c2)c1C`, the compound was classed as inactive.

On to `O=C(NCc1cccn1Cc1ccccc1)Nc1cccc(C(F)(F)F)c1`, for which the “activity change, negative = inhibition” value is inactive: 0.887%.

For the compound `Cc1ccc([N+](=O)[O-])cc1S(=O)(=O)N1CCn2cccc2C1c1ccccc1F` (stereo not drawn), the “activity change, negative = inhibition” value was inactive: -2.09%.

On to `Cn1c(=O)oc2cc(S(=O)(=O)N3CCC(C(=O)NCc4ccccc4)CC3)ccc21`, for which the “activity change, negative = inhibition” value is inactive: -18.2%.

Take `Cc1ccc(-n2nc3c(=O)n(CCCC(=O)NCc4ccccc4C)nc(C)c3c2C)cc1`: the “activity change, negative = inhibition” value was inactive: 7.42%.

On to `COCCNC(=O)c1c(-c2ccccc2)c(-c2ccccc2)nn(C)c1=O`, for which the “activity change, negative = inhibition” value is inactive: -14.1%.

Consider `Cc1ccc(NC(=O)CNC(=O)Cn2c(C)cc3ccccc3c2=O)cc1F`, for which the “activity change, negative = inhibition” value was inactive: 9.8%.

On to `CN(Cc1ccc(F)cc1)S(=O)(=O)c1nnc(NC(=O)c2ccccc2Br)s1`, for which the “activity change, negative = inhibition” value is inactive: -4.83%.

Regarding `O=C(Cn1c(=O)n(Cc2ccc(Cl)cc2)c(=O)c2cccnc21)Nc1ccccc1C(F)(F)F`, the “activity change, negative = inhibition” value was inactive: -16.6%.

In the case of `CCOc1cc(CNC(=O)c2ccc(Cn3c(=O)c4cccn4c4cccnc43)cc2)ccc1OC`, the “activity change, negative = inhibition” value was inactive: 5.68%.

Take `CCOC(=O)c1cnc2cc(C(F)(F)F)ccc2c1N1CCN(c2cccc(Cl)c2)CC1`: the outcome was inactive.

`Cc1ccc(NC(=O)CSc2nc3ccc(NC(=O)c4cccs4)cc3s2)cc1`: the “activity change, negative = inhibition” value is inactive: -10.4%.

As for `CCC(Sc1nnc(C)n2c1cc1sccc12)C(=O)Nc1ccccc1F` (stereo not drawn), the “activity change, negative = inhibition” value was inactive: -7.7%.

On to `CCOC(=O)c1c(SCC(=O)Nc2nc3ccccc3s2)nc(=O)[nH]c1C`, for which the “activity change, negative = inhibition” value was inactive: 5.5%.

In the case of `CCCCC(=O)Oc1ccc2oc(-c3ccc(OC)cc3)cc(=O)c2c1`, the “activity change, negative = inhibition” value was inactive: -1.07%.

Take `Cc1ccc(F)cc1NC(=O)CCc1c(C)nn(-c2ccc(N3CCCC3)nn2)c1C`: the “activity change, negative = inhibition” value was inactive: 20.1%.

As to `CCc1cc(C(N)=S)ccn1`, the “activity change, negative = inhibition” value is inactive: 4.63%.

As to `CC(=O)c1ccc(NC(=O)Cn2cnc3nc4c(cc3c2=O)CC(C)CC4)cc1` (stereo not drawn), the “activity change, negative = inhibition” value is inactive: 4.83%.

Regarding `CCOc1cccc(C2c3[nH]c4ccccc4c3CCN2C(=O)c2ccccc2F)c1` (stereo not drawn), the “activity change, negative = inhibition” value was inactive: 0.43%.

On to `CCOc1ccccc1C(=O)Nc1ccc(S(=O)(=O)Nc2onc(C)c2C)cc1`, for which the “activity change, negative = inhibition” value was inactive: -19.1%.

Consider `CCC1CN(C(=O)NCc2ccc(C)cc2)c2cc(Cl)ccc2O1` (stereo not drawn), for which the compound was classed as inactive.

For the compound `COc1ccc(NC(=O)Cn2cnc3sc(C)c(S(=O)(=O)N4CCN(c5ccccc5OC)CC4)c3c2=O)cc1OC`, the “activity change, negative = inhibition” value was inactive: -12.4%.

For the compound `COc1ccc(S(=O)(=O)n2nc(-c3ccco3)nc2NCc2ccc(N(C)C)cc2)cc1`, the “activity change, negative = inhibition” value was inactive: 9.84%.

In the case of `COc1ccc(S(=O)(=O)c2cn(CC(=O)Nc3cc(C)ccc3C)c3ccccc3c2=O)cc1`, the “activity change, negative = inhibition” value is inactive: 9.62%.

For `Cc1ccc(CNC(=O)N2CCC(CN3CCC(C)CC3)CC2)cc1`, the “activity change, negative = inhibition” value was inactive: -6.29%.

With `CCN1CCN(Cc2nc3cc(NC(=O)c4cc(OC)c(OC)c(OC)c4)ccc3n2CC)CC1`, the “activity change, negative = inhibition” value is inactive: 13.6%.

With `COc1cc(OC)cc(-c2nc3nc(C)c(CCC(=O)Nc4ccc(C)c(C)c4)c(C)n3n2)c1`, the “activity change, negative = inhibition” value is inactive: 15.4%.

Regarding `Cc1ccc(C)c(N2CCN(C(=O)Cn3ncc4c(=O)oc5ccccc5c43)CC2)c1`, the “activity change, negative = inhibition” value is inactive: 14.2%.

For `Cc1ccc2scc(N3CCc4ccccc4C3)c(=O)c2c1`, the “activity change, negative = inhibition” value is inactive: 2.28%.

Turning to `CC(C)c1ccc(NC(=O)CN2C(=O)COc3ccc(S(=O)(=O)N4CCCCC4)cc32)cc1`, the “activity change, negative = inhibition” value is inactive: -13.7%.

`CCc1ccccc1NC(c1nnc(-c2cccc(F)c2)o1)c1ccc(F)cc1Cl` (stereo not drawn): the “activity change, negative = inhibition” value was inactive: 2.22%.

In the case of `Cc1ccc(S(=O)(=O)NC2(C(F)(F)F)NC(=O)N(CCc3ccccc3)C2=O)cc1` (stereo not drawn), the “activity change, negative = inhibition” value was inactive: 8.88%.

On to `Fc1ccc(Nc2ncnc3onc(-c4cccc(Cl)c4)c23)c(F)c1`, for which the outcome was inactive.

The values above are taken from PubChem BioAssay AID1963576 (National Center for Advancing Translational Sciences (NCATS), 2024).
